Measurements published in patent US11365205B2 (Aurigene Discovery Technologies Limited, priority 2018, dated 2022).

Biological target: PRMT5/MEP50 Complex (Homo sapiens (Human), UniProt O14744)
Assay: PRMT5 inhibition based on TR-FRET assay
Type: biochemical
Conditions: 32 nM PRMT5:MEP50, 50 nM Histone-H4 peptide, 1 μM SAM
Source text: PRMT5 Inhibition Based on TR-FRET Assay:
Protein arginine methyltransferase 5 (PRMT5) is a type II arginine methyltransferase that catalyze mono- and symmetric demethylation on arginine residues of histone or non-histone proteins in presence of S-adenosylmethionine (AdoMet or SAM) a cofactor responsible for donating the methyl group. PRMT5 is reported to be overexpressed in several human cancers. To identify compounds that inhibit the PRMT5 and decrease its activity, a TR-FRET based assay has been established. Time-resolved fluorescence resonance energy transfer (TR-FRET) HTS assays are homogeneous proximity assays where the interaction of two dye-labeled binding partners is detected by the energy transfer between a donor and an acceptor dye and the subsequent light emission by the acceptor dye. PRMT5 catalyzes Histone H4 peptide which is biotin tagged to the Lysine amino acid at carboxyl end, in presence of S-adenosyl-1-methionine (SAM) to methylate the peptide. The antibody specific to mono methylated H4 peptide (H4R3) with Ig conjugate binds to the methylated peptide, indirectly binding to the Europium lanthanide. […]
The compound dilutions were prepared as 7.5% DMSO stock solutions in assay buffer. […] The plates were then read on Victor-3 with Excitation at 340 nm and Emissions collected at 615 and 665 nm in TR-FRET protocol. […]

UniProt O14744, sequence (O14744 whole entry): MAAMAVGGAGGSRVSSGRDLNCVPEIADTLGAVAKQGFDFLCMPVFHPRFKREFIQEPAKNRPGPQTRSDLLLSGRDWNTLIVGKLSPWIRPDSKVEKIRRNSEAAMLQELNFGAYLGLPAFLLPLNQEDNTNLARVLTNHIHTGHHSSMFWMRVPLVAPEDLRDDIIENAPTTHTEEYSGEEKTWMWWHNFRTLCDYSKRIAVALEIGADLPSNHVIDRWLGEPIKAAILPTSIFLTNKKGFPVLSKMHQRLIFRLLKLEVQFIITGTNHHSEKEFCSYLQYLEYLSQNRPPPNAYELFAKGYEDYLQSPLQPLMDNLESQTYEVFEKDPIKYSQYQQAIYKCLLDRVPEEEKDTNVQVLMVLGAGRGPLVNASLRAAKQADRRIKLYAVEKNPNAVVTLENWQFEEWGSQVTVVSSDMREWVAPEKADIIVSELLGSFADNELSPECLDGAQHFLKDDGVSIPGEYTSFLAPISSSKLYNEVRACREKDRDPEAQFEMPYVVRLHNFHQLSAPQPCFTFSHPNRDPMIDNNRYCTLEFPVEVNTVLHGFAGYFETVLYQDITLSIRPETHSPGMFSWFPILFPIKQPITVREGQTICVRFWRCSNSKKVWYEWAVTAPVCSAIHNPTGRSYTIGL
UniProt O14744, sequence (Q9BQA1 whole entry partner): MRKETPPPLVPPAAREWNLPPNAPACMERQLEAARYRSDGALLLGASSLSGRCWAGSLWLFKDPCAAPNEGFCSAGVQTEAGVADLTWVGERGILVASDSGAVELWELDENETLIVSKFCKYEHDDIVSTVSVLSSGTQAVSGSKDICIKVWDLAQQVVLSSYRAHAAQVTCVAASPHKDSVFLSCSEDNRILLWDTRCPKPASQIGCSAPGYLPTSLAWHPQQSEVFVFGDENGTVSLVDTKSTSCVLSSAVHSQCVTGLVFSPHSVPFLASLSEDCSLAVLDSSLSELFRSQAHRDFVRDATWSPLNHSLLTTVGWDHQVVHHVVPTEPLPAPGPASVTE

SMILES | IC50 [µM]
CC(C)c1ccc(CN2C(=O)N(CC(O)CN3CCc4ccccc4C3)C(C)(C)C2=O)cn1 (centres unmarked) [Example 29, 1-(3-(3,4-Dihydroisoquinolin-2(1H)-yl)-2-hydroxypropyl)-3-((6-isopropylpyridin-3-yl)methyl)-5,5-dimethylimidazolidine-2,4-dione] | 0.12
Cn1cnc2ccc(CN3CCN(CC(O)CN4CCc5ccccc5C4)C3=O)cc21 (centres unmarked) [Example 1, 1-(3-(3,4-Dihydroisoquinolin-2(1H)-yl)-2-hydroxypropyl)-3-((1-methyl-1H-benzo[d]imidazol-6-yl)methyl)imidazolidin-2-one] | 0.43
